Some of the results follow.
molecular target: T1, OsWOX13 (Oryza sativa, UniProt Q5QMM3 1-267); assay: protein-binding microarray (RPBM); PBS, 2% BSA, 51.3 ng/ul salmon testes DNA, 50 uM zinc acetate, 200 nM TF, 25 C, 1 h; high values mean tight binding; conditions: protein: recombinant; tags: N-terminal polyhistidine and DsRed monomer fusion (pET32a); label: CyDye5-dUTP incorporated in the synthesized complementary strand; 3' TTTTT single-stranded linker to array surface; dsDNA, one strand shown
T1 sequence: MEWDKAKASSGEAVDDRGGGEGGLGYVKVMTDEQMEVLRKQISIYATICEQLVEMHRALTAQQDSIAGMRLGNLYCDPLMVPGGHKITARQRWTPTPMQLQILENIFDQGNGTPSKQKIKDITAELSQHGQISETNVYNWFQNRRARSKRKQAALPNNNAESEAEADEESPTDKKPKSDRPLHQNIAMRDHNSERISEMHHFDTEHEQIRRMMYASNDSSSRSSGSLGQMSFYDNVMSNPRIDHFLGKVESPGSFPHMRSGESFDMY
Outline: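 The binding signal is fluorescence intensity per feature, in arbitrary units, read on an Axon 4000B scanner. Polyhistidine- and DsRed-tagged transcription factors (N-terminal fusions) from E. coli BL21-CodonPlus were purified on Ni–NTA and applied at 200 nM for 1 h at 25 °C to a double-stranded, BSA-blocked custom Agilent array in buffer with 50 µM zinc acetate.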

Row | Sequence | binding signal
1 | ATTATTCAATTACATTTGATGAAATTTTGAAAAGTTTTAGCGGAGTCACCTAGTGCAG | 28700 fluorescence intensity (a.u.)
2 | CTGGAAATTTCTTTCCTGATTTAATAAGCATGTACTCCCTCGGAGTCACCTAGTGCAG | 9170 fluorescence intensity (a.u.)
3 | GGGGTGATTATGATCCAGGAATGGTGCGCTGTGGTGGATTCGGAGTCACCTAGTGCAG | 17200 fluorescence intensity (a.u.)
4 | ATTCAAGATTGGATGAAGGATGACACCTCGACGTAGATATCGGAGTCACCTAGTGCAG | 7320 fluorescence intensity (a.u.)
5 | CTAAATTTGATAAATATATAAGAAATCGTACTAAAATTTTCGGAGTCACCTAGTGCAG | 6380 fluorescence intensity (a.u.)
6 | TTTTAGGTTAATTACTTCTATTGGTCAACTCAATATGCAGCGGAGTCACCTAGTGCAG | 5660 fluorescence intensity (a.u.)
7 | AAATAATTTATGAATAAAACTTTTATCTACGTGTTCTTAACGGAGTCACCTAGTGCAG | 9010 fluorescence intensity (a.u.)
8 | TTGCTAATGACGGATTAATTAGGCTTAATAAATTCGTCTCCGGAGTCACCTAGTGCAG | 33900 fluorescence intensity (a.u.)
9 | GGAAACATATAAATGGGAAACTAACATGTTAAGATTATCCCGGAGTCACCTAGTGCAG | 4120 fluorescence intensity (a.u.)
10 | TACTTAATTAAGACTACACTAATGCATGATTCGTTTTGCTCGGAGTCACCTAGTGCAG | 35100 fluorescence intensity (a.u.)
11 | GGATAGACAGTTTCCTTTGATCATGTGACGTTTGATTATTCGGAGTCACCTAGTGCAG | 5900 fluorescence intensity (a.u.)
12 | CCATTACTAAATTAAATAGGCCAGATTCTCTCTCACACCCCGGAGTCACCTAGTGCAG | 5660 fluorescence intensity (a.u.)
13 | CGGGATAGACAGATGGTGGCTCCGTAATTTTGAATCCCTTCGGAGTCACCTAGTGCAG | 22200 fluorescence intensity (a.u.)
14 | GCCATAATTGGTAGGAACACCTGCAAGAAAACATCATATGCGGAGTCACCTAGTGCAG | 34200 fluorescence intensity (a.u.)
15 | TTAGAAAATTGATCGAATTTCGAGCTAACTAACATCAAATCGGAGTCACCTAGTGCAG | 3900 fluorescence intensity (a.u.)
16 | ATCTGAACAGGCAGTCAATTTGGATTCGTAGTACTAGAAACGGAGTCACCTAGTGCAG | 3280 fluorescence intensity (a.u.)
17 | GTGCTAATATAATTTAAATAACTAGTTTGACGGACAAATCCGGAGTCACCTAGTGCAG | 10800 fluorescence intensity (a.u.)
18 | TCTAATTGGCTTACTTAATATGATTCGATCCTACAACCTCCGGAGTCACCTAGTGCAG | 53700 fluorescence intensity (a.u.)
19 | CATCCTTAATCCATCAATTTATATTACTATTATTATTCCACGGAGTCACCTAGTGCAG | 5450 fluorescence intensity (a.u.)
20 | TTCGAATCTCTGATTGGGAGTTCAGGTCAGAGACGTTCAGCGGAGTCACCTAGTGCAG | 14700 fluorescence intensity (a.u.)
21 | ATGTAAATTTTGGAGGAAATTTAACCTCATGAGTCTCTCTCGGAGTCACCTAGTGCAG | 8190 fluorescence intensity (a.u.)

Row | Sequence | binding signal
22 | ACAAATAGAATTGCTGATGAGAGCTTAAACATTATTGCACCGGAGTCACCTAGTGCAG | 8840 fluorescence intensity (a.u.)
23 | ATGACGTGATTGACGGCAGGGTTGTTGGACGGCAGCCTTTCGGAGTCACCTAGTGCAG | 48300 fluorescence intensity (a.u.)
24 | TCATAAATTAATAGCTCCCTATTAATTTAATTCTAAAATTCGGAGTCACCTAGTGCAG | 13900 fluorescence intensity (a.u.)
25 | CAGATAGGCGGAAAATTGATTAAAGTTTGATGAAATAGTCCGGAGTCACCTAGTGCAG | 27500 fluorescence intensity (a.u.)
26 | AAATATAAAATATTTTAATTAGATGGAATACATCGTTATACGGAGTCACCTAGTGCAG | 5450 fluorescence intensity (a.u.)
27 | CAAATTACTAAAGCTAAAATATATTTAATTTATTGTACATCGGAGTCACCTAGTGCAG | 3280 fluorescence intensity (a.u.)
28 | TTTCCATTAATAAATTGAAACATATTGAACTAGATCGTTCCGGAGTCACCTAGTGCAG | 15600 fluorescence intensity (a.u.)
29 | AAAATGATTTTATAATTTCTGGCAGGTAGCAATAATTGGCCGGAGTCACCTAGTGCAG | 23500 fluorescence intensity (a.u.)
30 | GTAGATTAGGAGGTGAAAATGAAGGTGCAAGTAGAGGACTCGGAGTCACCTAGTGCAG | 3620 fluorescence intensity (a.u.)
31 | CAATAATTAGAGTAATCTAATAGTACTACTACCACAGTAGCGGAGTCACCTAGTGCAG | 20400 fluorescence intensity (a.u.)
32 | AACATCCGCTTGATTACCAAACTCGCTTAGCAAAACTTGGCGGAGTCACCTAGTGCAG | 4870 fluorescence intensity (a.u.)
33 | TATATATATATATATATATATATATATATATATATGTATGCGGAGTCACCTAGTGCAG | 12400 fluorescence intensity (a.u.)
34 | CATGAACCTGTTACTTAATTATAGATAGCACTCATGAAGCCGGAGTCACCTAGTGCAG | 4510 fluorescence intensity (a.u.)
35 | AAATAAGATGTGATTAATGAGACAAATAGATATATATCGTCGGAGTCACCTAGTGCAG | 5020 fluorescence intensity (a.u.)
36 | GGTTAGATTTAAATGTTGCAGTGGGGTTTTCGATGGTGTTCGGAGTCACCTAGTGCAG | 9930 fluorescence intensity (a.u.)
37 | CTTTGACAAGTTCTGGGAACTGGATATGCATTTTGAGAGTCGGAGTCACCTAGTGCAG | 3980 fluorescence intensity (a.u.)
38 | GTCACAATTAAAGTTATTCGTAATAGACATTCTGGAGTTTCGGAGTCACCTAGTGCAG | 7100 fluorescence intensity (a.u.)
39 | GTTAATTAATTCCCCTCCGTTTCTCACGGCCTCATGGCCACGGAGTCACCTAGTGCAG | 41200 fluorescence intensity (a.u.)
40 | TTAGTTTAATTAAATGTAACATTGAGTATATTTTGATAATCGGAGTCACCTAGTGCAG | 16700 fluorescence intensity (a.u.)
41 | AATGACTGGAGTGAGTTAGCATGCTCGGATGGAGTGGCAACGGAGTCACCTAGTGCAG | 6780 fluorescence intensity (a.u.)
42 | TTCCGGTATGACCATTGATTTGTATCCATTTGATAGGCTGCGGAGTCACCTAGTGCAG | 6490 fluorescence intensity (a.u.)
